In the supplement of paper PMC3334620:
Whole data set: some 33,000 sequences, median “E-score (-0.5 to 0.5)” near -0.01, cut for the highest 2% near 0.26. The list shows a part of the results.

Target: Ste12 (UniProt P13574)
Test: PBM E-score (8-mer binding enrichment) (E-score (-0.5 to 0.5)); higher = stronger / more preferred TF binding; most listed sequences are background and not binding sites
Settings: protein concentration: 200 nM; construct: GST-DNA-binding domain
In short: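 Each ungapped eight-base word and its reverse complement, pooled, received an E-score from the Universal PBM Analysis Suite. Underlying scans, normalised with masliner, recorded fluorescent anti-GST bound to GST-tagged yeast transcription factors. These were applied at about 100-200 nM to universal all-10-mer Agilent arrays double-stranded by primer extension.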

Sequence	PBM E-score
GATGCTCC	-0.125
GCAGCTGC	0.00859
TCGGCGCA	0.06
AAAAACCC	0.0736
CTAGTGTA	0.129
CCTACGAG	-0.0858
CCTAGAGA	-0.154
GCGTGCCC	-0.132
GAAAGGTA	-0.032
AGATGCTG	-0.0848
CTCCGGGC	-0.00144
CCCCGAGC	0.0007
TCAAGCCA	-0.0863
CTATCAAA	0.186
AGCCCTCA	-0.112
GCCCGTAC	-0.132
CCACAAAC	0.122
CGTTCCAA	0.0893
TAAGAAAA	0.235
GTTGAACA	-0.269
GGTCCCCA	-0.21
CTCAAAAA	0.178
AAACTAGG	0.0381
CAGATGCG	-0.175
TTCGGCAA	0.193

Sequence	PBM E-score
CGCAACGA	-0.0782
ATTTCAGA	0.00371
AACTTCGG	0.199
GTTTCATA	0.481
CTCTGTCA	-0.0992
ATTCAGAC	0.109
CCTAGTGA	-0.239
CTAAAGGC	-0.145
CGTTTTTA	0.165
GGGCATAC	-0.181
ACCGGGTC	0.0358
CTACGATC	-0.157
ACATTTAC	0.114
CGGCGTAG	-0.0316
ACAATTGC	-0.0789
ACTCGACA	0.00181
CTTTATAA	0.153
ACTGGTAT	-0.14
AAAGGGAC	-0.0471
ATTTCGGG	-0.12
ACGCTCAT	-0.0693
CGCTACGC	-0.228
GGTCTGCA	-0.0319
CGAACTTC	-0.111
CATGATAG	0.049

Sequence	PBM E-score
CAAAGCGA	0.0708
CCTTGCTC	-0.0796
AATTCGTG	0.023
ATGCACAC	-0.161
CCCACGGA	-0.11
AGATTAAT	0.0881
AAGGGTGT	0.0285
ATGGTACG	0.00709
GGTCTCAC	0.0358
AACGAGAG	0.0712
TAGAGCTA	-0.128
AATACGGA	0.067
GGCGCCTA	0.0309
CTTTGTTC	0.227
GTCTGAAA	0.314
AACCGTAA	0.0346
CAGATTAA	0.238
CTCGGACC	-0.0902
GAATAATC	0.00357
ACCCCAGA	-0.0601
AGCTGCCG	0.0275
GTCTACAA	-0.138
AGACCCAG	-0.117
ACCCGCCA	-0.0831
CCGTTCCG	0.0117

Sequence	PBM E-score
CGATGTAC	0.0035
ACAAGCAA	-0.00365
AAGGACGG	-0.176
CAGCCTGC	-0.107
CTAAGCGC	0.0248
GCCCATAC	-0.0724
AAATCTAT	0.196
ACCGGAAA	0.109
GGATTTAA	0.243
CTGTGATC	-0.191
TCCCCCAA	-0.0923
TGGCGGAA	-0.112
CATGACTC	-0.104
CTGGTGCA	-0.0475
CAGAGCAA	0.0905
CCGGAACC	0.0511
CTACTCGC	-0.0337
CCGACCAG	-0.138
TGCTGCAA	0.0531
ATAGGTGA	-0.0202
GATTATAC	0.0507
AAGCCAGG	-0.177
ATCCCCGC	0.249
CTGTCCCC	-0.0882
GACACCAA	0.108

Sequence	PBM E-score
CGCCGGAA	0.0651
AACCTTGA	0.0675
ACCGGCCT	-0.0798
CAGCCAGC	-0.158
ATAAGACC	0.106
GGCGTCCC	-0.00088
ATAATCTA	0.136
CGCCCTAA	-0.0721
CATACGTC	-0.00573
ACCGCGCC	-0.034
AGTGAACC	-0.0809
CACGAAAG	0.095
GTCTTAAA	0.0648
CAGAAGTC	-0.15
TATAGCAA	0.0525
GACTGTCA	-0.139
CAAGGGAA	-0.161
CTTTAATC	0.108
ACGTAGCT	-0.285
GCAGCGCC	-0.00626
ACTTTTTA	0.198
AAGATAAC	0.0268
TGCCCTAA	-0.22
CGGTGTCC	-0.209
CTGGGTGA	-0.118

Sequence	PBM E-score
GCAACGCA	-0.148
ATCGTAAA	0.186
GGCGTGTA	-0.181
ATGGTCCC	-0.197
CGGTACTC	-0.195
GACATTGC	-0.147
ATATTTAA	0.347
CACCTTTC	0.00448
TCACCCGA	0.158
AGAGCAAT	-0.107
AAGAGCGG	0.121
CTAAGTAC	-0.235
AAGAGGAC	-0.264
CACATCAC	0.0988
AGCTGATA	0.0329
AAAAAGAC	0.153
TCAGACGA	-0.0271
CACTAAGA	0.0208
CGGGCCAA	-0.052
ATCCTGTC	0.0934
ATAGCTCA	-0.0443
AACATAGT	0.0485
GCATAAAC	0.261
ACTCGGTC	-0.134
TAGACTCA	-0.187

Sequence	PBM E-score
ACGCTTAA	-0.0288
ACACCAGC	-0.101
GCGCAAGC	0.00596
GGGTAAGA	-0.0186
AACTCGCG	0.195
CTAATACC	-0.0758
GCCTACTA	-0.00368
ATTAGTTG	0.0922
ACTAGTCC	-0.104
CGCTTTGA	0.0516
AGGGGACC	-0.215
ATAATAAA	0.255
TACCATCA	-0.133
ATCCTGAA	0.151
AGACATCG	-0.182
CGATTACA	-0.139
ATGCCAAA	-0.0117
CGGTAAAC	-0.0353
AAGGTGGA	0.0581
AATGGCGC	-0.103
ACCGGTAT	0.0132
CGACGTAA	-0.0256
GTCCCCGA	-0.0338
CGACTCAA	0.0158
ACTGCTAT	-0.00787

Sequence	PBM E-score
CACAGCAA	0.108
ACTCTAGG	-0.0955
GAACTATA	0.203
GTACGAAA	0.182
ACGCGCGA	-0.00668
AACTCATA	0.162
AGTTATAT	0.207
CCGAGAGA	0.0747
CGGACAGC	-0.158
GTTGCTCA	0.00037
GAGTTTCC	-0.00944
CGGGACAG	0.0692
AGCGCCAA	-0.12
GTTACCAA	0.118
ACAGAGTC	-0.035
AAAGAGCA	0.0324
ACTCACCT	-0.208
AGTATTAG	0.173
CGGTGACC	-0.247
AGCAACCA	0.0763
AAATCGGC	0.101
CTGCCCGA	0.0365
AAAAACCT	0.263
CGAGTCTA	-0.101
TCAAATCA	0.158

Sequence	PBM E-score
CAAGGGGA	0.0228
AAAGGGTA	-0.045
AAGCGCCC	0.0333
CCATCACA	-0.177
CACGGATG	-0.171
AACTGATG	0.122
GAACATTA	0.142
ATTGCCTG	0.0807
AGGGCCTG	-0.00927
GGGCCACC	0.0264
CCCCACCC	0.361
CCCTACGC	-0.251
CTTCAGAA	0.19
GCCTGAAC	-0.209
GCTATAAC	-0.0199
AGGAAGGC	-0.0323
GTGTTTCA	0.489
AAAGGAAA	0.205
ATGTAACA	0.288
CTCGGCGA	-0.0728
ACCTTCGG	-0.0222
CCATATTC	0.061
ATCAGCCC	-0.0153
CAATGTCC	-0.0701
GGCTCGAC	-0.191

Sequence	PBM E-score
GCCTCACC	-0.0151
CAGTATGC	-0.239
AGTGTAAA	0.2
TATCTCGA	0.0352
CGCTTGGA	-0.227
AGAGGCCT	-0.233
AAGGTTGC	-0.00125
ATCGATGG	0.0234
CGGTATAC	-0.108
GGTATGCA	-0.298
GTGCCAGA	-0.0442
CGGGGGGC	-0.0839
GGGCCCAA	-0.121
CACGTGTC	-0.0718
GGGATTGA	-0.0715
ACTCTAAT	-0.0135
GATCCTCC	-0.0451
GCAGCAAA	0.0116
ACTCCAAC	0.00044
AGTTTTGA	0.148
AAATCTAA	0.132
ACATCCGG	-0.0408
GCTTGGGA	-0.164
CGGACGCC	-0.0656
ATCAGCAG	0.0355

Sequence	PBM E-score
ACAGCGTC	-0.124
AGGAGCCT	-0.125
CACTGGAG	-0.249
AATGGCCT	-0.00519
GGATGGAA	-0.0741
GGAATAAA	0.0634
CGGACCTA	0.0577
GGGTCCAA	-0.0826
ATCATAAA	0.0612
TAAGTACA	0.0047
CCAAGTTA	-0.0382
TTCCGAAA	0.264
ATTTAATC	0.209
CAGGAATA	0.00205
GGTCCGTA	-0.151
ACACTCCC	-0.0365
CATTTTCA	0.273
AACTGGGT	-0.118
ACGATTTG	0.107
CTATTAGC	0.0448
AAATGCCC	-0.188
ACCTTCCG	0.0145
CGTCTGAA	0.0774
CTGTACCC	-0.0994
GGTAAAGA	0.15

Sequence	PBM E-score
AATGAGTA	0.15
GCGGTGCA	-0.13
ATAGCCAA	0.0295
ATTAAATG	0.19
AATTTTAA	0.318
GGTTCGCA	-0.0263
CTGGCTTA	-0.0812
ACCGAGCG	0.0148
CTAAAACC	0.192
CGGCCTAG	-0.0703
ACGTACGT	-0.134
ACTACTCA	-0.0467
AAAGGCAC	0.0435
CGCGTCGA	0.0888
ACAGCACG	-0.136
AACACCAA	0.0389
AGTACAAG	-0.00883
ATACAACG	0.0195
ATCATTTC	0.171
CAAGCCAA	-0.0322
GAGTAGCA	-0.128
CTTAATTA	0.208
CAGACTAC	-0.246
CAACCTTA	-0.0367
ATAGACTC	-0.133

Sequence	PBM E-score
CGTTCCAC	-0.0852
AGGCCTGG	-0.188
ACACAGCG	0.121
TAGTCCAA	-0.142
TCCGTGCA	0.0424
GTGATGGA	-0.0522
AGTACTGG	-0.0665
ACATCGTA	-0.0243
ATTAAAGA	0.0703
TCGTTCCA	-0.0164
ATGTTTGC	0.0377
ACATACGA	0.0743
GCAGTATA	0.0915
GAGTACGA	-0.112
GCCATGGA	-0.091
TCGGCTCA	-0.202
ACCTGGCT	-0.125
AACATGAC	0.103
CGTCGCGA	0.125
GTCGCTTA	-0.193
GTGCCCTA	-0.173
AATCCCAG	-0.0638
CTAGCGAC	-0.0932
TATCGGAA	0.171
AGTCCATC	-0.306

Sequence	PBM E-score
GATGCACC	-0.207
AGGACTAG	-0.143
CTAACCAC	0.0504
ACTGCTTC	-0.0707
GATTGCCC	-0.235
CGTTTGTC	0.00601
GTGGACCA	-0.146
AATGTTCA	0.0604
CAAGAAGG	0.168
CGTCAAGC	-0.157
GTCCGTGA	-0.207
CGGGGGCC	-0.188
CACTCTGC	-0.0761
AGACTGAT	0.0502
GGTCGGTA	0.0205
AGGGAAGC	-0.0834
TCGAGAAA	0.0795
AGTCAGGA	-0.17
CTGCCAAG	-0.247
